Legend:
[1] = molecular target: T1, human PD-1 (soluble / purified antigen, construct not stated) (human, UniProt Q15116 part only, limits assumed); assay: Binding ELISA; drug product Batch B, 5°C inverted, initial
T1 construct: also called soluble antigen

[2] = molecular target: T1, human PD-1 (soluble / purified antigen, …); assay: Binding ELISA; drug product Batch A, 5°C upright, initial
[3] = molecular target: T1, human PD-1 (soluble / purified antigen, …); assay: Binding ELISA; drug substance Batch A, -20°C, T = 0
[4] = molecular target: T1, human PD-1 (soluble / purified antigen, …); assay: Binding ELISA; drug product Batch A, 25°C/60% RH upright, initial
[5] = molecular target: cynomolgus PD-1 expressed on cells (cynomolgus monkey, UniProt B0LAJ3 25-288); assay: cell-based or functional assay
[6] = molecular target: T1, human PD-1 (soluble / purified antigen, …); assay: Binding ELISA; drug product Batch A, 25°C/60% RH inverted, 3 months
[7] = molecular target: T1, human PD-1 (soluble / purified antigen, …); assay: Binding ELISA; drug product Batch A, -20°C, 3 months
[8] = molecular target: T1, human PD-1 (soluble / purified antigen, …); assay: Binding ELISA; drug substance Batch B, 25°C/60% RH, 1 month
[9] = molecular target: T1, human PD-1 (soluble / purified antigen, …); assay: Binding ELISA; drug substance Batch A, 25°C/60% RH, 0.5 month
[10] = molecular target: T1, human PD-1 (soluble / purified antigen, …); assay: Binding ELISA; drug substance Batch A, -70°C, 3 months
[11] = molecular target: T1, human PD-1 (soluble / purified antigen, …); assay: Binding ELISA; drug substance Batch A, -20°C, 3 months
[12] = molecular target: T1, human PD-1 (soluble / purified antigen, …); assay: Binding ELISA; drug product Batch A, 25°C/60% RH upright, 3 months
[13] = molecular target: T1, human PD-1 (soluble / purified antigen, …); assay: Binding ELISA; drug product Batch A, 5°C upright, 1 month
[14] = molecular target: T1, human PD-1 (soluble / purified antigen, …); assay: Binding ELISA; drug product Batch A, 5°C upright, 3 months
[15] = molecular target: T1, human PD-1 (soluble / purified antigen, …); assay: Binding ELISA; drug product Batch A, 25°C/60% RH inverted, initial
[16] = molecular target: T1, human PD-1 (soluble / purified antigen, …); assay: Binding ELISA; drug product Batch B, 5°C inverted, 1 month
[17] = molecular target: T1, human PD-1 (soluble / purified antigen, …); assay: Binding ELISA; drug substance Batch A, 5°C, 3 months
[18] = molecular target: T1, human PD-1 (soluble / purified antigen, …); assay: Binding ELISA; drug substance Batch B, -20°C, 1 month
[19] = molecular target: T1, human PD-1 (soluble / purified antigen, …); assay: Binding ELISA; drug substance Batch B, 5°C, 1 month
[20] = molecular target: T1, human PD-1 (soluble / purified antigen, …); assay: Binding ELISA; drug substance Batch B, 25°C/60% RH, T = 0
[21] = molecular target: T1, human PD-1 (soluble / purified antigen, …); assay: Binding ELISA; drug substance Batch A, 5°C, 1 month
[22] = molecular target: T1, human PD-1 (soluble / purified antigen, …); assay: Binding ELISA; drug substance Batch B, -70°C, T = 0
[23] = molecular target: T1, human PD-1 (soluble / purified antigen, …); assay: Binding ELISA; drug product Batch A, 5°C inverted, initial
[24] = molecular target: T1, human PD-1 (soluble / purified antigen, …); assay: Binding ELISA; drug substance Batch A, -70°C, 6 months
[25] = molecular target: T1, human PD-1 (soluble / purified antigen, …); assay: Binding ELISA; drug product Batch B, 25°C/60% RH inverted, initial
[26] = molecular target: T1, human PD-1 (soluble / purified antigen, …); assay: Binding ELISA; drug product Batch B, 25°C/60% RH upright, 0.5 month
[27] = molecular target: T1, human PD-1 (soluble / purified antigen, …); assay: Binding ELISA; drug product Batch A, 25°C/60% RH inverted, 1 month

T1 sequence (Q15116 25-170 limits assumed): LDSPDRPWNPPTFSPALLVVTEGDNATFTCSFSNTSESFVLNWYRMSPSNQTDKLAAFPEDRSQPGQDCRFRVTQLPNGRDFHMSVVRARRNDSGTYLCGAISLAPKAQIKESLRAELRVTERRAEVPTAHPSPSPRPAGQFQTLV
Sequence of UniProt B0LAJ3 (B0LAJ3 entry or part of it limits assumed): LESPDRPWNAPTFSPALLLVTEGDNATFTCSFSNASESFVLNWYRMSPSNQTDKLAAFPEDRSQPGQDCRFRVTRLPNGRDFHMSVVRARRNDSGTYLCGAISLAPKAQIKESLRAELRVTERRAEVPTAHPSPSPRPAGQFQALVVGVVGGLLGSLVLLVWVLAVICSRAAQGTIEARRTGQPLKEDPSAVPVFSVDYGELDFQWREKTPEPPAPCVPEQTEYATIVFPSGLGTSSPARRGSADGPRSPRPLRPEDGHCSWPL

- Binding ELISA, ratio of Reference EC50/Sample EC50 [1]: 82%
- Binding ELISA, ratio of Reference EC50/Sample EC50 [2]: 86%
- Binding ELISA, ratio of Reference EC50/Sample EC50 [3]: 99%
- Binding ELISA, ratio of Reference EC50/Sample EC50 [4]: 86%
- IL-2 EC50 (nM), cynomolgus PBMC assay, NHP1 [5]: 0.24 nM
- IL-2 EC50 (nM), cynomolgus PBMC assay, NHP2 [5]: 2.5 nM
- IL-2 EC50 (nM), cynomolgus PBMC assay, NHP3 [5]: 9.24 nM
- IL-2 EC50 (nM), cynomolgus PBMC assay, NHP4 [5]: 1.22 nM
- Binding ELISA, ratio of Reference EC50/Sample EC50 [6]: 105%
- Binding ELISA, ratio of Reference EC50/Sample EC50 [7]: 95%
- Binding ELISA, ratio of Reference EC50/Sample EC50 [8]: 69%
- Binding ELISA, ratio of Reference EC50/Sample EC50 [9]: 87%
- Binding ELISA, ratio of Reference EC50/Sample EC50 [10]: 88%
- Binding ELISA, ratio of Reference EC50/Sample EC50 [11]: 89%
- Binding ELISA, ratio of Reference EC50/Sample EC50 [12]: 87%
- Binding ELISA, ratio of Reference EC50/Sample EC50 [13]: 94%
- Binding ELISA, ratio of Reference EC50/Sample EC50 [14]: 97%
- Binding ELISA, ratio of Reference EC50/Sample EC50 [15]: 86%
- Binding ELISA, ratio of Reference EC50/Sample EC50 [16]: 83%
- Binding ELISA, ratio of Reference EC50/Sample EC50 [17]: 86%
- Binding ELISA, ratio of Reference EC50/Sample EC50 [18]: 84%
- Binding ELISA, ratio of Reference EC50/Sample EC50 [19]: 97%
- Binding ELISA, ratio of Reference EC50/Sample EC50 [20]: 76%
- Binding ELISA, ratio of Reference EC50/Sample EC50 [21]: 78%
- Binding ELISA, ratio of Reference EC50/Sample EC50 [22]: 76%
- Binding ELISA, ratio of Reference EC50/Sample EC50 [23]: 86%
- Binding ELISA, ratio of Reference EC50/Sample EC50 [24]: 91%
- Binding ELISA, ratio of Reference EC50/Sample EC50 [25]: 82%
- Binding ELISA, ratio of Reference EC50/Sample EC50 [26]: 85%
- Binding ELISA, ratio of Reference EC50/Sample EC50 [27]: 73%
B1: PD1AB-6-K3 (antibody, human IgG1, kappa)
heavy: EVQLVQSGAEVKKPGATVKISCKASGFNIKDTYMHWVQQAPGKGLEWMGRIDPANGDRKYDPKFQGRVTITADTSTDTAYMELSSLRSEDTAVYYCARSGPVYYYGSSYVMDYWGQGTTVTVSS[human IgG1 constant region with changes not written out]
light: DIVMTQSPDSLAVSLGERATINCKSGQSVLYSSNQKNFLAWYQQKPGQPPKLLIYWASTRESGVPDRFSGSGSGTDFTLTISSLQAEDVAVYYCHQYLYSWTFGQGTKLEIKRTVAAPSVFIFPPSDEQLKSGTASVVCLLNNFYPREAKVQWKVDNALQSGNSQESVTEQDSKDSTYSLSSTLTLSKADYEKHKVYACEVTHQGLSSPVTKSFNRGEC
notes: also called PD1AB-6-IgG1-K322A; PD1AB-6-K322A

Reference: patent US20180289802A1 (CELGENE, published 2018)
